Screen size: about 52,000 compounds; about 1,700 (3.3%) were called active. Rule as the data show it: active = survival mostly below about 52% (no sharp cut-off); inactive = mostly above about 56%. The list shows a part of the results.

The test system of this test is Wild type. The test is described as follows: S. aureus survival, RN4220 and DeltatarO strains – OD600, teichoic acid synthesis inhibitors, primary screen (AID 463173). The settings on record: S. aureus RN4220 wild type/DeltatarO growth, OD600, 18 h, hits give low values, screened at 18.75 µg/mL (by protocol).
`COc1ccc(C)cc1NC(=O)c1ccc2c(=O)n3c(nc2c1)CCCCC3`: the survival was inactive: 76%.

Consider `Cn1c(=O)c2c(-c3ccc(Cl)cc3)n(Cc3ccc(Cl)cc3)cc2n(C)c1=O`, for which the survival is inactive: 49%.

Take `Cc1cccc(-c2nc3c4ccccc4nc(N4CCN(c5ccccc5F)CC4)n3n2)c1`: the survival is inactive: 71%. With `Cc1ccc(CNC(=O)NCc2noc3ccc(C)cc23)cc1`, the survival is inactive: 84%. In the case of `COc1ccc(-c2c(C)c3ccc(O)c(CN4CCOCC4)c3oc2=O)cc1`, the survival was inactive: 97%.

With `CCn1c2ccccc2c2cc(NC(=O)COc3ccc(C)cc3C)ccc21`, the survival is active: 8%. Take `COC(=O)c1cc2sc(Cl)cc2n1Cc1c(C)cc(C)cc1C`: the survival was inactive: 100%. For `Cc1ccc(Cn2c(CNS(=O)(=O)c3cccc([N+](=O)[O-])c3)nc3cccnc32)cc1`, the survival was inactive: 121%.

Regarding `COc1ccc(-c2cc(C)no2)cc1S(=O)(=O)Nc1c(C)cc(C)cc1C`, the survival is inactive: 82%. Under `CCOc1ccc(OCC)c(NS(=O)(=O)c2cc(-c3cnc(C)o3)ccc2OC)c1` stands inactive: 78%. Take `COc1ccc(OC)c(CNC(=O)c2ccc(C)c(NC(=O)c3nsc4ccccc34)c2)c1`: the survival is inactive: 83%. Then `CCCCNC(=O)C1CCN(S(=O)(=O)CCC)CC1`, with inactive: 83%; and `CCc1nn2c(=O)cc(COC(=O)c3cccc(NC(=O)c4cccs4)c3)nc2s1`, with inactive: 69%; and `CCOC(=O)c1c(-c2ccccc2)csc1NC(=O)c1cc(=O)c2ccc(C)cc2o1`, with inactive: 90%. Then `COc1ccc(OC)c(NC(=O)c2c(N3CCCC3=O)c3cc(OC)ccc3n2C)c1`, with inactive: 71%. `Cc1nc2nncn2c(Nc2ccccc2)c1C`: the survival was inactive: 83%.

In the case of `CCOC(=O)C1CCN(C(c2ccc(SC)cc2)c2c(O)cc(C)n(Cc3ccco3)c2=O)CC1` (stereo not given), the survival was inactive: 135%. `Cc1ccccc1-n1nc(CO)c(C(=O)NCc2cccnc2)n1`: the survival is inactive: 91%. Under `CCc1cccc(C)c1NC(=O)Cn1cnc2c1c(=O)n(C)c(=O)n2C` stands inactive: 71%. As to `COCCNC(=O)Nc1cc(C(=O)NCc2ccc(C(C)C)cc2)ccc1N1CCCC1`, the survival is inactive: 88%. Then `COc1cc(C2NC(=O)c3c(sc4c3CCN(C)C4)N2)cc(Br)c1OC(=O)c1ccc(C)cc1` (stereo not given), with inactive: 75%. Then `COc1ccc(N2CCN(C(=O)CCn3c(=O)[nH]c4cc(OC)c(OC)cc4c3=O)CC2)cc1`, with inactive: 75%; and `Cc1ccc(CC/C=N/NC(N)=S)o1`, with inactive: 117%; and `CCc1ccc(CNC(=O)C(C)n2ccc3cc(S(=O)(=O)N4CCCCCC4)ccc32)cc1` (stereo not given), with inactive: 75%. As to `CCN1CCN(C(C)C(=O)N(C(C)C)C(C)C)CC1` (stereo not given), the survival was inactive: 105%.

For the molecule `COC(=O)c1c(NC(=O)CCCOc2ccc(C(C)(C)C)cc2)sc2c1C(C(=O)OC)CC2` (stereo not given), the survival is active: -2%. Consider `Cc1ccc(NC(=O)C2CCN(S(=O)(=O)c3ccc4[nH]c5c(c4c3)CCCCC5)CC2)cc1`, for which the survival was inactive: 83%.

As for `COc1ccccc1N1CCN(c2ncnc3onc(-c4ccc(F)cc4)c23)CC1`, the survival is inactive: 84%. With `Cc1cccc(NC(=O)CCS(=O)(=O)c2cccc3nsnc23)c1C`, the survival was inactive: 84%. Regarding `COc1cccc(C(=O)NCCc2csc(-c3ccc(Cl)cc3)n2)c1`, the survival is inactive: 72%.

Consider `O=C(NCc1cccc(F)c1)C1CCCN(C(=O)N2CCOc3ccccc32)C1` (stereo not given), for which the survival is inactive: 85%. Under `CCOC(=O)CSC1=Nc2ccccc2C2=NC(CCC(=O)NCc3ccc(F)cc3)C(=O)N12` (stereo not given) stands inactive: 88%; under `CC1CN(C(=O)N2CCC(C(=O)NCc3cccs3)CC2)c2cc(Cl)ccc2O1` (stereo not given), inactive: 82%; under `Cc1ccc(C)c(NC(=O)C2CCCN(c3nc4ccccc4s3)C2)c1` (stereo not given), inactive: 76%. `O=c1nc(N2CCCC2)nc(N2CCCC2)[nH]1`: the survival was inactive: 104%. In the case of `CCc1ccccc1NC(=O)C1CCN(S(=O)(=O)c2ccccc2)CC1`, the survival is inactive: 72%. For `CC(C)C(Nc1ncnc2c1oc1ccccc12)C(=O)O` (stereo not given), the survival was inactive: 118%. Turning to `CCCCOc1ccc(C(=O)Nc2ccc3oc(-c4cccnc4)nc3c2)cc1`, the survival is inactive: 71%. With `COc1ccc(OCC(=O)N2CCC(c3nc4ccccc4s3)CC2)cc1`, the survival was inactive: 76%. On to `O=C(NC1CCCC1)c1ccc(CSc2nc3ccncc3n2Cc2cccc(F)c2)cc1`, for which the survival was inactive: 75%. With `CCOc1cc(C(=O)NCc2ccc3c(c2)CCN3C(=O)c2ccc(F)cc2)cc(OCC)c1OCC`, the survival is inactive: 129%.

`COc1ccc(CNC(=O)C(C)Sc2nc(-c3ccccc3)cc(C(F)(F)F)n2)cc1` (stereo not given): the survival is inactive: 149%. Take `Cc1ccc(CNC(=O)c2ccc3c(c2)c(C)c(C)n3Cc2ccccc2)o1`: the survival is inactive: 91%. As for `O=C(COc1ccccc1Cl)OCc1cc(=O)n2nc(C3CCCCC3)sc2n1`, the survival was inactive: 71%. As for `Cc1cccc(S(=O)(=O)c2cn(Cc3ccccc3)c3cc(N4CCOCC4)c(F)cc3c2=O)c1`, the survival is inactive: 71%.

Regarding `CC1Cc2cc(S(=O)(=O)NCCc3ccc(Cl)cc3)ccc2N1C(=O)C1CCC1` (stereo not given), the survival is inactive: 80%.

In the case of `COc1ccccc1Cn1cc(C(=O)c2ccc(Cl)cc2)c(=O)c2ccccc21`, the survival is inactive: 101%. Turning to `Cc1c2cnn(CC(=O)NCC(C)c3ccccc3)c(=O)c2c(C)n1Cc1cccc(Cl)c1` (stereo not given), the survival was inactive: 95%.

Consider `CCn1ccc2cc(S(=O)(=O)N3CCC(C(=O)NCCc4ccccc4Cl)CC3)ccc21`, for which the survival is inactive: 75%. Regarding `CCc1ccc(C(=O)c2cnc3ccc(F)cc3c2S(=O)(=O)c2ccccc2)cc1`, the survival was inactive: 135%.

`CC(C)OCCCNC(=O)c1cn(C)c2ccc(S(=O)(=O)N3CCCCCC3)cc2c1=O`: the survival was inactive: 131%. Regarding `Cc1cccc(N2CCN(C(=O)C3CCCN(S(=O)(=O)c4ccc5c(c4)oc(=O)n5C)C3)CC2)c1C` (stereo not given), the survival was inactive: 86%.

Take `Cc1oc2ccc(O)c(CN3CCCC3)c2c1C(=O)Nc1ccccc1`: the survival is inactive: 86%. As to `CC1(C(=O)O)CCC(C(=O)N2CCCCC2)C1(C)C` (stereo not given), the survival was inactive: 106%.

With `COc1ccccc1NC(=O)C(C)Sc1nnc2ccc3ccccc3n12` (stereo not given), the survival was inactive: 81%. Then `Cc1ccc(CNC(=O)CN2C(=O)CCn3nc(-c4ccccc4)cc32)cc1`, with inactive: 68%. Under `CCc1cccc2c(-c3ccccc3)nc(SCC(=O)Nc3ccccc3OC)nc12` stands inactive: 127%; under `Cc1ccc(-n2ncc(C(=O)NCc3cccs3)c2C2CCN(C(=O)OC(C)(C)C)CC2)cc1`, inactive: 78%. Under `CCCn1c(=O)c2sccc2n2c(CCCC(=O)NC3CCC(C)CC3)nnc12` (stereo not given) stands inactive: 100%; under `CCCCOc1ccc(C(=O)NCCc2csc(-c3cccc(F)c3)n2)cc1`, inactive: 72%; under `CC1Cc2cc(S(=O)(=O)CCC(=O)NCc3ccc(Cl)cc3)ccc2N1C(=O)C1CC1` (stereo not given), inactive: 83%. As to `COCCOC(=O)C1=C(C)NC(=O)NC1c1cn(-c2ccccc2)nc1-c1ccccc1` (stereo not given), the survival was inactive: 68%.

`O=C(CS(=O)(=O)Cc1ccccc1)Nc1ccccn1`: the survival is inactive: 115%. Under `COc1ccc(OC)c(CCNC(=O)CCc2cn(Cc3cc(C)ccc3C)c3ccccc23)c1` stands inactive: 84%.

For `Cc1ccc(CNCC(C)O)s1` (stereo not given), the survival was inactive: 96%.

On to `Cc1ccc(Cl)cc1NS(=O)(=O)c1ccc2c(c1)NC(=O)CCS2`, for which the survival is inactive: 82%.

With `O=C(Cn1c(=O)c2cccn2c2ccc(F)cc21)N1CCN(c2ccccc2F)CC1`, the survival was inactive: 89%.

Take `COc1cccc(C2NC(=O)c3n[nH]c(-c4cccs4)c32)c1` (stereo not given): the survival was inactive: 72%. For `O=C(N1CCOCC1)C1(c2ccc(Cl)cc2)CCCC1`, the survival is inactive: 108%. As for `Fc1ccc(-n2ncc3c(NCCCn4ccnc4)ncnc32)cc1`, the survival is inactive: 80%.

`CN1CCN(C(CNC(=O)c2ccccc2F)c2ccc3c(c2)OCO3)CC1` (stereo not given): the survival is inactive: 72%. On to `COc1ccc(C(=O)N(Cc2cc(OC)c(OC)c(OC)c2)c2ccccn2)cc1`, for which the survival was inactive: 84%. Turning to `O=C(Cn1c(=O)nc(-c2ccccc2)c2ccccc21)NCCc1ccc(Cl)cc1`, the survival was inactive: 84%.

For `COc1ccc(Br)cc1CNC(=O)c1cnc2sc(N3CCCC3)nn2c1=O`, the survival is inactive: 68%. Consider `CNc1nc(OCC#N)nc(N2CCCCC2)n1`, for which the survival is inactive: 119%.

`Cc1cc2[nH]c(=O)c(=O)[nH]c2cc1S(=O)(=O)N1CCN(c2cccc(C(F)(F)F)c2)CC1`: the survival is inactive: 70%. Under `O=C1Nc2ccccc2N(O)N1c1ccccc1Cl` stands inactive: 112%; under `COc1ccc(-c2cn3nc(N4CCCC(C(=O)Nc5cc(C)ccc5C)C4)sc3n2)cc1` (stereo not given), inactive: 71%; under `CCN1C(=O)C(O)(CC(=O)c2ccc(OC)c(OC)c2)c2ccccc21` (stereo not given), inactive: 95%.

For `COc1cc(NC(=O)NCC2CCN(Cc3ccccc3Cl)CC2)cc(OC)c1OC`, the survival was inactive: 72%. With `CCCCN(CC)CCNC(=O)CCn1cnc2onc(-c3ccc(F)cc3)c2c1=O`, the survival is inactive: 72%. On to `COc1ccc(NC(=O)c2sc3nc(-c4cc5ccc(OC)cc5oc4=O)[nH]c(=O)c3c2C)cc1`, for which the survival was inactive: 90%. As to `Cc1cccc(-n2cc(-c3ccccc3)c3c(N4CCC(C)CC4)ncnc32)c1`, the survival was inactive: 72%. Consider `COc1ccc(Cl)cc1NC(=O)c1cnc(SC)nc1-c1ccccc1`, for which the survival is inactive: 22%.

`Cc1ccccc1NC(=O)C(=O)NCC1(c2ccccc2)CCCC1`: the survival is inactive: 94%. In the case of `CCOc1ccc(Nc2nc(C)c(NC(=O)c3ccc(C)cc3)c(Nc3ccc(OCC)cc3)n2)cc1`, the survival was inactive: 149%. In the case of `O=C(CSc1nnc(Cc2ccccc2)n1Cc1ccccc1)N1CCCC1`, the survival was inactive: 112%. Consider `O=C(CSc1nnc2scc(-c3ccc(Cl)cc3)n12)Nc1cccc(C(F)(F)F)c1`, for which the survival was inactive: 68%. For the molecule `COc1cc(NC(=O)CC(C)S(=O)(=O)c2ccc3c(c2)CCN3C(C)=O)cc(OC)c1OC` (stereo not given), the survival is inactive: 76%. Regarding `CCN1CCN(c2ncc3c(n2)CCN(Cc2sccc2C)C3)CC1`, the survival was inactive: 63%.

Values taken from PubChem BioAssay AID463173 (ICCB-Longwood Screening Facility, Harvard Medical School, 2010).
